According to the supplement of paper PMC4967469:
By IC50 is meant the dose at which the fit gives 50% viability; where the fit passes the top or lowest dose, that dose stands as a limit. AUC sums up the same curve from the lowest dose to the 256-fold higher top dose; the more sensitive the line, the further below 1. For part of these data: Any top dose called inferred comes from the curve model; the source does not state it.

Columns and labels:
Test in all cases: Viability of human cancer cell lines after 72 h of drug (GDSC screen)
[1] = compound: Oc1ccc2ccccc2c1SSc1c(O)ccc2ccccc12 [IPA-3]; settings: top dose 32 µM; top dose inferred
Procedure: (§1)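 Human cancer cell lines in 384-well plates, medium with 10% serum, drug for 72 h over a 256-fold dose range (nine 2-fold or five 4-fold steps up to the top dose). Adherent lines were fixed and stained with the nucleic acid dye Syto60, suspension lines read with resazurin; signal relative to control wells, capped at 0 and 100%. One two-parameter sigmoid per drug and line, fitted in a mixed model over all curves with the slope shared within a line.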

[2] = compound: Cn1nnc2c(C(N)=O)ncn2c1=O [Temozolomide]; settings: top dose 30 µM
Procedure: as §1

[3] = compound: COc1cc2c(Oc3ccc(NC(=O)C4(C(=O)Nc5ccc(F)cc5)CC4)cc3F)ccnc2cc1OCCCN1CCOCC1 [XL-880]; settings: top dose 5.12 µM; top dose inferred
Procedure: as §1

[4] = compound: CN1CCc2c(c3ccccc3n2Cc2ccc(C(=O)NO)cc2)C1 [Tubastatin A]; settings: top dose 20 µM
Procedure: as §1

[5] = compound: O=C(NOCC1CC1)c1ccc(F)c(F)c1Nc1ccc(I)cc1Cl [CI-1040]; settings: top dose 10 µM; top dose inferred
Procedure: as §1

Question: With “NCI-H520 (lung squamous cell carcinoma, adherent)” as the cell line, how does the AUC [1] read?
Answer: Its AUC is 0.898.

Question: What about the IC50 [1] of the same cell line?
Answer: The IC50 was > 32 µM.

Question: What about the AUC [2] of the same cell line?
Answer: The AUC was 0.986.

Question: What about the IC50 [2] of the same cell line?
Answer: Its IC50 is > 30 µM.

Question: And the AUC [3]?
Answer: Its AUC is 0.601.

Question: And the IC50 [3]?
Answer: The IC50 was 612 nM.

Question: What about the AUC [4] of the same cell line?
Answer: The AUC was 0.905.

Question: And the IC50 [4]?
Answer: Its IC50 is > 20 µM.

Question: And the AUC [5]?
Answer: Its AUC is 0.987.

Question: And the IC50 [5]?
Answer: Its IC50 is > 10 µM.

Question: ECC10 (stomach, suspension) was tested. Which AUC [1] did it give?
Answer: Its AUC is 0.787.

Question: And the IC50 [1]?
Answer: Its IC50 is 14.6 µM.

Question: What about the AUC [2] of the same cell line?
Answer: Its AUC is 0.963.

Question: What about the IC50 [2] of the same cell line?
Answer: Its IC50 is > 30 µM.

Question: And the AUC [3]?
Answer: Its AUC is 0.723.

Question: What about the IC50 [3] of the same cell line?
Answer: The IC50 was 1420 nM.

Question: What about the AUC [4] of the same cell line?
Answer: Its AUC is 0.929.

Question: And the IC50 [4]?
Answer: The IC50 was > 20 µM.

Question: What about the AUC [5] of the same cell line?
Answer: The AUC was 0.884.

Question: And the IC50 [5]?
Answer: Its IC50 is > 10 µM.

Question: PA-TU-8902 (pancreas, adherent) was tested. Which AUC [1] did it give?
Answer: Its AUC is 0.983.

Question: And the IC50 [1]?
Answer: Its IC50 is > 32 µM.

Question: What about the AUC [2] of the same cell line?
Answer: Its AUC is 0.981.

Question: And the IC50 [2]?
Answer: The IC50 was > 30 µM.

Question: And the AUC [3]?
Answer: Its AUC is 0.625.

Question: What about the IC50 [3] of the same cell line?
Answer: The IC50 was 750 nM.

Question: And the AUC [4]?
Answer: Its AUC is 0.979.

Question: And the IC50 [4]?
Answer: Its IC50 is > 20 µM.

Question: And the AUC [5]?
Answer: The AUC was 0.709.

Question: And the IC50 [5]?
Answer: Its IC50 is 2.72 µM.

Question: LN-405 (glioma, adherent) was tested. Which AUC [1] did it give?
Answer: The AUC was 0.979.

Question: What about the IC50 [1] of the same cell line?
Answer: The IC50 was > 32 µM.

Question: What about the AUC [2] of the same cell line?
Answer: The AUC was 0.982.

Question: And the IC50 [2]?
Answer: The IC50 was > 30 µM.

Question: And the AUC [3]?
Answer: Its AUC is 0.747.

Question: What about the IC50 [3] of the same cell line?
Answer: The IC50 was 2010 nM.

Question: And the AUC [4]?
Answer: The AUC was 0.981.

Question: What about the IC50 [4] of the same cell line?
Answer: The IC50 was > 20 µM.

Question: And the AUC [5]?
Answer: The AUC was 0.972.

Question: And the IC50 [5]?
Answer: Its IC50 is > 10 µM.

Question: G-402 (soft tissue, adherent) was tested. Which AUC [1] did it give?
Answer: The AUC was 0.899.

Question: What about the IC50 [1] of the same cell line?
Answer: Its IC50 is > 32 µM.

Question: And the AUC [2]?
Answer: Its AUC is 0.974.

Question: What about the IC50 [2] of the same cell line?
Answer: Its IC50 is > 30 µM.

Question: And the AUC [3]?
Answer: Its AUC is 0.521.

Question: What about the IC50 [3] of the same cell line?
Answer: The IC50 was 371 nM.

Question: What about the AUC [4] of the same cell line?
Answer: The AUC was 0.959.

Question: And the IC50 [4]?
Answer: The IC50 was > 20 µM.

Question: What about the AUC [5] of the same cell line?
Answer: The AUC was 0.942.

Question: What about the IC50 [5] of the same cell line?
Answer: Its IC50 is > 10 µM.

Question: Which AUC [1] does the source give for COLO-679 (melanoma, adherent) here?
Answer: Its AUC is 0.862.

Question: And the IC50 [1]?
Answer: The IC50 was > 32 µM.

Question: And the AUC [2]?
Answer: Its AUC is 0.97.

Question: What about the IC50 [2] of the same cell line?
Answer: Its IC50 is > 30 µM.

Question: What about the AUC [3] of the same cell line?
Answer: Its AUC is 0.947.

Question: And the IC50 [3]?
Answer: The IC50 was > 5120 nM.

Question: What about the AUC [4] of the same cell line?
Answer: The AUC was 0.981.

Question: What about the IC50 [4] of the same cell line?
Answer: The IC50 was > 20 µM.

Question: What about the AUC [5] of the same cell line?
Answer: The AUC was 0.428.

Question: What about the IC50 [5] of the same cell line?
Answer: Its IC50 is 0.387 µM.

Question: How did the AUC [1] turn out when HDQ-P1 (breast, adherent) was run?
Answer: Its AUC is 0.875.

Question: And the IC50 [1]?
Answer: Its IC50 is > 32 µM.

Question: And the AUC [2]?
Answer: The AUC was 0.983.

Question: What about the IC50 [2] of the same cell line?
Answer: The IC50 was > 30 µM.

Question: What about the AUC [3] of the same cell line?
Answer: Its AUC is 0.788.

Question: What about the IC50 [3] of the same cell line?
Answer: The IC50 was 2730 nM.

Question: What about the AUC [4] of the same cell line?
Answer: Its AUC is 0.924.

Question: What about the IC50 [4] of the same cell line?
Answer: The IC50 was > 20 µM.

Question: What about the AUC [5] of the same cell line?
Answer: Its AUC is 0.834.

Question: What about the IC50 [5] of the same cell line?
Answer: Its IC50 is 8.39 µM.

Question: What does the source list for KYSE-520 (oesophagus, adherent)?
Answer: AUC [1]: 0.955; IC50 [1]: > 32 µM; AUC [2]: 0.973; IC50 [2]: > 30 µM; AUC [3]: 0.655; IC50 [3]: 1000 nM; AUC [4]: 0.962; IC50 [4]: > 20 µM; AUC [5]: 0.817; IC50 [5]: 8.23 µM

Question: SW756 (cervix, adherent) was tested. Which AUC [1] did it give?
Answer: Its AUC is 0.973.

Question: And the IC50 [1]?
Answer: The IC50 was > 32 µM.

Question: What about the AUC [2] of the same cell line?
Answer: The AUC was 0.942.

Question: What about the IC50 [2] of the same cell line?
Answer: Its IC50 is > 30 µM.

Question: What about the AUC [3] of the same cell line?
Answer: The AUC was 0.959.

Question: And the IC50 [3]?
Answer: The IC50 was > 5120 nM.

Question: What about the AUC [4] of the same cell line?
Answer: The AUC was 0.984.

Question: What about the IC50 [4] of the same cell line?
Answer: Its IC50 is > 20 µM.

Question: And the AUC [5]?
Answer: The AUC was 0.877.

Question: And the IC50 [5]?
Answer: The IC50 was > 10 µM.

Question: For BxPC-3 (pancreas, adherent), which AUC [1] is on record?
Answer: Its AUC is 0.893.

Question: What about the IC50 [1] of the same cell line?
Answer: Its IC50 is > 32 µM.

Question: And the AUC [2]?
Answer: Its AUC is 0.981.

Question: What about the IC50 [2] of the same cell line?
Answer: Its IC50 is > 30 µM.

Question: What about the AUC [3] of the same cell line?
Answer: The AUC was 0.622.

Question: And the IC50 [3]?
Answer: The IC50 was 726 nM.

Question: What about the AUC [4] of the same cell line?
Answer: The AUC was 0.941.

Question: And the IC50 [4]?
Answer: The IC50 was > 20 µM.

Question: And the AUC [5]?
Answer: Its AUC is 0.862.

Question: What about the IC50 [5] of the same cell line?
Answer: Its IC50 is > 10 µM.

Question: For IPC-298 (melanoma, adherent), which AUC [1] is on record?
Answer: Its AUC is 0.886.

Question: And the IC50 [1]?
Answer: The IC50 was > 32 µM.

Question: And the AUC [2]?
Answer: The AUC was 0.983.

Question: What about the IC50 [2] of the same cell line?
Answer: The IC50 was > 30 µM.

Question: What about the AUC [3] of the same cell line?
Answer: Its AUC is 0.656.

Question: And the IC50 [3]?
Answer: Its IC50 is 863 nM.

Question: And the AUC [4]?
Answer: Its AUC is 0.912.

Question: What about the IC50 [4] of the same cell line?
Answer: The IC50 was > 20 µM.

Question: And the AUC [5]?
Answer: Its AUC is 0.453.

Question: And the IC50 [5]?
Answer: The IC50 was 0.467 µM.

Question: What does the source list for T98G (glioma, adherent)?
Answer: AUC [1]: 0.99; IC50 [1]: > 32 µM; AUC [2]: 0.984; IC50 [2]: > 30 µM; AUC [3]: 0.619; IC50 [3]: 660 nM; AUC [4]: 0.985; IC50 [4]: > 20 µM; AUC [5]: 0.87; IC50 [5]: 8.16 µM
